Results on one molecule are retold here after paper PMC2814318 (Journal of neurochemistry, 2009).

The experiment has as its target His-tagged β1b subunit (rat, UniProt P54283 1-597). Description: glutathione-coated plate-binding assay.
Sequence of UniProt P54283 (P54283 whole entry): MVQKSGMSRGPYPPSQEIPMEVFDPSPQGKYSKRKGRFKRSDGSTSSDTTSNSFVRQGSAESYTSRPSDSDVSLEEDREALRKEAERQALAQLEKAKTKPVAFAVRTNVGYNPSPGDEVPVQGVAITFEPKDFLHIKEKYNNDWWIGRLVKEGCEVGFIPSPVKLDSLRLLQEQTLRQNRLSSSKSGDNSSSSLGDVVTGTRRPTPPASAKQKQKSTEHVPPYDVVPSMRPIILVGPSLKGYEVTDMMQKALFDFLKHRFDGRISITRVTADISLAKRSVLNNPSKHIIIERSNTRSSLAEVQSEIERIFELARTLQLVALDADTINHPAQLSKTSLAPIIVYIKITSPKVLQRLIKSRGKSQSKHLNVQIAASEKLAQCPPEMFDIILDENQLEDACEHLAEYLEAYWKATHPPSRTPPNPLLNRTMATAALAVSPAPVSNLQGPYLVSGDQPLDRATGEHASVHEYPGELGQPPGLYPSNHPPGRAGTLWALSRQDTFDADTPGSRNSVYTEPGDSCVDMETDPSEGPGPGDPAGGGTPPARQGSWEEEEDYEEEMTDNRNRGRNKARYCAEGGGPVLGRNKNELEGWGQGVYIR

B1: Thr286-autophosphorylated CaMKIIα (enzyme)
chain: not shown
modifications: phosphothreonine at 286 (autophosphorylated; 32P-labelled for the plate-binding assay)
With B1, the binding result is “binds”.
